Experimental data reported in the supplement of paper PMC8728848.
This is one part of the list.

Tests used:
Experiment in all cases: glycan array binding signal (z-score within array); higher = stronger binding
Conditions in all cases: glycan notation: IUPAC condensed, linker removed
[1] = molecular target: Neu5Ac(a2-6)Gal(b1-4)GlcNAc(b1-2)Man(a1-3)[Gal(b1-4)GlcNAc(b1-2)Man(a1-6)]Man(b1-4)GlcNAc(b1-4)GlcNAc
In short: (§1)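 Negative Z-scores can be read as non-binding. The Z-score is calculated within each array and then averaged across arrays of one protein sequence at different concentrations or buffers and across linkers. Arrays, 3228 in all, were curated from the Consortium for Functional Glycomics database and kept only where the protein sequence was available.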

[2] = molecular target: Neu5Ac(a2-6)Gal(b1-4)GlcNAc(b1-2)Man(a1-3)[GlcNAc(b1-2)Man(a1-6)]Man(b1-4)GlcNAc(b1-4)GlcNAc
In short: as §1

[3] = molecular target: Neu5Ac(a2-6)Gal(b1-4)GlcNAc(b1-2)Man(a1-3)[GlcNAc(b1-2)Man(b1-4)GlcNAc(b1-2)Man(a1-6)]Man(b1-4)GlcNAc(b1-4)GlcNAc
In short: as §1

[4] = molecular target: Neu5Ac(a2-6)Gal(b1-4)GlcNAc(b1-2)Man(a1-3)[Neu5Ac(a2-6)Gal(b1-4)GlcNAc(b1-2)Man(a1-6)]Man(b1-4)GlcNAc(b1-4)GlcNAc
In short: as §1

[5] = molecular target: Neu5Ac(a2-6)Gal(b1-4)GlcNAc(b1-2)Man(a1-6)[Gal(b1-4)GlcNAc(b1-2)Man(a1-3)]Man(b1-4)GlcNAc(b1-4)GlcNAc
In short: as §1

[6] = molecular target: Neu5Ac(a2-6)Gal(b1-4)GlcNAc(b1-2)Man(a1-6)[GlcNAc(b1-2)Man(a1-3)]Man(b1-4)GlcNAc(b1-4)GlcNAc
In short: as §1

[7] = molecular target: Neu5Ac(a2-6)Gal(b1-4)GlcNAc(b1-3)Gal(b1-4)GlcNAc
In short: as §1

[8] = molecular target: Neu5Ac(a2-6)Gal(b1-4)GlcNAc(b1-3)Gal(b1-4)[Fuc(a1-3)]GlcNAc(b1-3)Gal(b1-4)[Fuc(a1-3)]GlcNAc
In short: as §1

[9] = molecular target: Neu5Ac(a2-6)Gal(b1-4)GlcNAc6S
In short: as §1

Neu5Ac(a2-6)GalNAc = molecular target: Neu5Ac(a2-6)GalNAc
In short: as §1

[10] = molecular target: Neu5Ac(a2-6)GalNAc(b1-4)GlcNAc
In short: as §1

Neu5Ac(a2-8)Neu5Ac = molecular target: Neu5Ac(a2-8)Neu5Ac
In short: as §1

[11] = molecular target: Neu5Ac(a2-8)Neu5Ac(a2-3)Gal(b1-4)Glc
In short: as §1

[12] = molecular target: Neu5Ac(a2-8)Neu5Ac(a2-3)[GalNAc(b1-4)]Gal(b1-4)Glc
In short: as §1

[13] = molecular target: Neu5Ac(a2-8)Neu5Ac(a2-8)Neu5Ac
In short: as §1

[14] = molecular target: Neu5Ac(a2-8)Neu5Ac(a2-8)Neu5Ac(a2-3)Gal(b1-4)Glc
In short: as §1

[15] = molecular target: Neu5Ac(a2-8)Neu5Ac(a2-8)Neu5Ac(a2-3)[GalNAc(b1-4)]Gal(b1-4)Glc
In short: as §1

[16] = molecular target: Neu5Ac(a2-8)Neu5Ac(a2-8)Neu5Ac(a2-8)Neu5Ac(a2-3)[GalNAc(b1-4)]Gal(b1-4)Glc
In short: as §1

[17] = molecular target: Neu5Ac(b2-6)Gal(b1-4)GlcNAc
In short: as §1

Neu5Ac(b2-6)GalNAc = molecular target: Neu5Ac(b2-6)GalNAc
In short: as §1

[18] = molecular target: Neu5Ac9Ac(a2-6)Gal(b1-4)GlcNAc
In short: as §1

[19] = molecular target: Neu5Gc(a2-3)Gal(b1-3)GlcNAc
In short: as §1

[20] = molecular target: Neu5Gc(a2-3)Gal(b1-3)[Fuc(a1-4)]GlcNAc
In short: as §1

Neu5Gc(a2-3)Gal(b1-4)Glc = molecular target: Neu5Gc(a2-3)Gal(b1-4)Glc
In short: as §1

[21] = molecular target: Neu5Gc(a2-3)Gal(b1-4)GlcNAc
In short: as §1

[22] = molecular target: Neu5Gc(a2-3)Gal(b1-4)[Fuc(a1-3)]GlcNAc
In short: as §1

[23] = molecular target: Neu5Gc(a2-6)Gal(b1-4)GlcNAc
In short: as §1

Neu5Gc(a2-6)GalNAc = molecular target: Neu5Gc(a2-6)GalNAc
In short: as §1

[24] = molecular target: Neu5Gc(b2-6)Gal(b1-4)GlcNAc
In short: as §1

B1: CBM32-4 (Clostridium perfringens), P26831 (protein)
chain: MGSSHHHHHHSSGLVPRGSHMASVYEPSLVDAYVGDDGAKKAVDGDLKTRVKFLGAPSTGDTIVYDLGQEILVDNLKYVVLDTEVDHVRDGKIQLSLDGETWTDAINIGDGVENGVDDMFSTPLKNGYKHGNQSGGIVPIDSAYVEGDNLNQKARYVRILFTAPYRHRWTVINELMINNGEYIPTVNDPT
[1]
  glycan array binding signal (z-score): -0.402
[2]
  glycan array binding signal (z-score): -0.426
[3]
  glycan array binding signal (z-score): -0.48
[4]
  glycan array binding signal (z-score): -0.476
[5]
  glycan array binding signal (z-score): -0.336
[6]
  glycan array binding signal (z-score): -0.523
[7]
  glycan array binding signal (z-score): -0.348
[8]
  glycan array binding signal (z-score): -0.302
[9]
  glycan array binding signal (z-score): 0.013
Neu5Ac(a2-6)GalNAc
  glycan array binding signal (z-score): -0.363
[10]
  glycan array binding signal (z-score): -0.215
Neu5Ac(a2-8)Neu5Ac
  glycan array binding signal (z-score): 0.241
[11]
  glycan array binding signal (z-score): -0.415
[12]
  glycan array binding signal (z-score): -0.153
[13]
  glycan array binding signal (z-score): -0.281
[14]
  glycan array binding signal (z-score): -0.286
[15]
  glycan array binding signal (z-score): -0.284
[16]
  glycan array binding signal (z-score): -0.481
[17]
  glycan array binding signal (z-score): -0.456
Neu5Ac(b2-6)GalNAc
  glycan array binding signal (z-score): -0.38
[18]
  glycan array binding signal (z-score): -0.446
[19]
  glycan array binding signal (z-score): -0.474
[20]
  glycan array binding signal (z-score): -0.542
Neu5Gc(a2-3)Gal(b1-4)Glc
  glycan array binding signal (z-score): -0.272
[21]
  glycan array binding signal (z-score): -0.402
[22]
  glycan array binding signal (z-score): -0.348
[23]
  glycan array binding signal (z-score): -0.448
Neu5Gc(a2-6)GalNAc
  glycan array binding signal (z-score): -0.386
[24]
  glycan array binding signal (z-score): -0.438
